The other results are listed elsewhere or left out. Most values come without repeats; read them as rough.
Key:
Test in all cases: cell count relative to DMSO control; melanoma cells; higher = more viable cells
Conditions in all cases: library dose: low library concentration; 72 h
MZ2-MEL = system: MZ2-MEL
MeWo = system: MeWo
RPMI7951 = system: RPMI7951
RVH-421 = system: RVH-421
SkMel28 = system: SkMel28
SkMel2 = system: SkMel2
SkMel30 = system: SkMel30
SkMel5 = system: SkMel5
UACC257 = system: UACC257
UACC62 = system: UACC62
WM115 = system: WM115
WM1716 = system: WM1716
WM1745 = system: WM1745
WM3526 = system: WM3526
WM3619 = system: WM3619
WM451Lu = system: WM451Lu
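Further: cell number obtained by counting DAPI-stained nuclei in high-throughput microscope images with image analysis software, screen run in 1,536-well plates.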

Compound | cell count (MZ2-MEL) [%] | cell count (MeWo) [%] | cell count (RPMI7951) [%] | cell count (RVH-421) [%] | cell count (SkMel28) [%] | cell count (SkMel2) [%] | cell count (SkMel30) [%] | cell count (SkMel5) [%] | cell count (UACC257) [%] | cell count (UACC62) [%] | cell count (WM115) [%] | cell count (WM1716) [%] | cell count (WM1745) [%] | cell count (WM3526) [%] | cell count (WM3619) [%] | cell count (WM451Lu) [%]
CCN(CC)CCNC(=O)c1c(C)[nH]c(/C=C2\C(=O)Nc3ccc(F)cc32)c1C [sunitinib] + c1cc(-c2cnn3cc(-c4ccc(OCCN5CCCCC5)cc4)cnc23)ccn1 [Dorsomorphin] (first compound 0.4 µM, partner dose 0.4 µM) | 101 | 87.9 | 118 | 132 | 101 | 118 | 76.8 | 97 | 81.4 | 85.9 | 98.6 | 111 | 59.1 | 94.5 | 122 | 70.2
C[C@]1(O)C[C@@H](c2nc(-c3ccc4ccc(-c5ccccc5)nc4c3)c3c(N)nccn32)C1 + OCCn1cc(-c2cnc3nnn(Cc4ccc5ncccc5c4)c3n2)cn1 [PF04217903] (first compound 0.4 µM, partner dose 1 µM) | 98.6 | 89.8 | 99.8 | 97.7 | 94.5 | 81.1 | 77 | 91.4 | 118 | 98 | 111 | 102 | 73.1 | 87.1 | 65.1 | 85.1
COc1cc([C@@H]2c3cc4c(cc3[C@@H](O[C@@H]3O[C@@H]5CO[C@@H](C)O[C@H]5[C@H](O)[C@H]3O)[C@H]3COC(=O)[C@H]23)OCO4)cc(OC)c1O [etoposide] + CC(C)(C)c1cnc(CSc2cnc(NC(=O)C3CCNCC3)s2)o1 [SNS-032] (first compound 0.02 µM, partner dose 0.01 µM) | 92.7 | 102 | 93.3 | 98.5 | 87.9 | 92.2 | 102 | 85.7 | 70.9 | 78 | 91.6 | 83 | 88.5 | 106 | 88 | 86.6
COc1cc([C@@H]2c3cc4c(cc3[C@@H](O[C@@H]3O[C@@H]5CO[C@@H](C)O[C@H]5[C@H](O)[C@H]3O)[C@H]3COC(=O)[C@H]23)OCO4)cc(OC)c1O [etoposide] + O=C(O)c1ccc2c(c1)nc(Nc1cccc(Cl)c1)c1ccncc12 [CX4945] (first compound 0.02 µM, partner dose 0.4 µM) | 86.4 | 94.9 | 111 | 84.4 | 93.1 | 91.5 | 95.6 |  |  | 91.4 | 103 | 98.2 | 99.2 | 92.2 | 81.7 | 102
COc1cc([C@@H]2c3cc4c(cc3[C@@H](O[C@@H]3O[C@@H]5CO[C@@H](C)O[C@H]5[C@H](O)[C@H]3O)[C@H]3COC(=O)[C@H]23)OCO4)cc(OC)c1O [etoposide] + CCCCCCCCCCCCCCCCCCOP(=O)([O-])OC1CC[N+](C)(C)CC1 [Perifosine] (first compound 0.02 µM, partner dose 0.4 µM) | 94.2 | 105 | 100 | 108 | 88.9 | 94.7 | 82 |  |  | 95.9 | 95.4 | 95.8 | 118 | 120 | 84.1 | 88.5
Cn1cnc2c(F)c(Nc3ccc(Br)cc3Cl)c(C(=O)NOCCO)cc21 [selumetinib] + Cc1nc(Nc2ncc(C(=O)Nc3c(C)cccc3Cl)s2)cc(N2CCN(CCO)CC2)n1 [dasatanib] (first compound 0.015 µM, partner dose 0.004 µM) | 67.8 | 74.9 | 74.8 | 68.8 | 73.8 | 78.8 | 57.3 |  |  | 60.1 | 69.9 | 102 | 79.5 | 73.8 | 70.7 | 81.2
C[C@]1(O)C[C@@H](c2nc(-c3ccc4ccc(-c5ccccc5)nc4c3)c3c(N)nccn32)C1 + Cn1nnc2c(C(N)=O)ncn2c1=O [temozolomide] (first compound 0.4 µM, partner dose 2 µM) | 99.9 | 92.5 | 80.2 | 87.9 | 81 | 82.6 | 82.8 |  |  | 74 | 110 | 73.5 | 87.1 | 70.4 | 111 | 95.4
CCN(CC)CCNC(=O)c1c(C)[nH]c(/C=C2\C(=O)Nc3ccc(F)cc32)c1C [sunitinib] + CN(c1ncccc1CNc1nc(Nc2ccc3c(c2)CC(=O)N3)ncc1C(F)(F)F)S(C)(=O)=O [PF562271] (first compound 0.4 µM, partner dose 0.08 µM) | 95.3 | 85 | 81.4 | 76.5 | 88.1 | 93.7 | 67.2 |  |  | 76 | 103 | 130 | 63.8 | 103 | 115 | 89.2
Cn1cnc2c(F)c(Nc3ccc(Br)cc3Cl)c(C(=O)NOCCO)cc21 [selumetinib] + CCCCCCCCc1ccc(CCC(N)(CO)CO)cc1 [fingolimod] (first compound 0.015 µM, partner dose 2 µM) | 78.9 | 86.1 | 99.2 | 75.5 | 79.1 | 64.8 | 46.5 |  |  | 53.5 | 86.1 | 93.1 | 78.4 | 72.9 | 73.9 | 85.2

Reference: the supplement of paper PMC4604168 (melanoma cell lines)
